# Assay results as given in paper PMC4336329 (PLoS ONE, 2015).
# In all, about 310,000 compounds went through this assay and about 14,000 (4.5%) showed an effect of 50% or more. The effect is printed as a negative number. The list shows a part of the results.
# Molecular target: human ether-à-go-go-related gene (hERG) potassium channel (human, UniProt Q12809)
# Test: primary screen, population patch clamp on CHO cells stably expressing hERG
# 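Note: peak tail current of the secondary pulse compared with the same well before compound.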
# Sequence of human ether-à-go-go-related gene (hERG) potassium channel (Q12809 whole entry, looked up): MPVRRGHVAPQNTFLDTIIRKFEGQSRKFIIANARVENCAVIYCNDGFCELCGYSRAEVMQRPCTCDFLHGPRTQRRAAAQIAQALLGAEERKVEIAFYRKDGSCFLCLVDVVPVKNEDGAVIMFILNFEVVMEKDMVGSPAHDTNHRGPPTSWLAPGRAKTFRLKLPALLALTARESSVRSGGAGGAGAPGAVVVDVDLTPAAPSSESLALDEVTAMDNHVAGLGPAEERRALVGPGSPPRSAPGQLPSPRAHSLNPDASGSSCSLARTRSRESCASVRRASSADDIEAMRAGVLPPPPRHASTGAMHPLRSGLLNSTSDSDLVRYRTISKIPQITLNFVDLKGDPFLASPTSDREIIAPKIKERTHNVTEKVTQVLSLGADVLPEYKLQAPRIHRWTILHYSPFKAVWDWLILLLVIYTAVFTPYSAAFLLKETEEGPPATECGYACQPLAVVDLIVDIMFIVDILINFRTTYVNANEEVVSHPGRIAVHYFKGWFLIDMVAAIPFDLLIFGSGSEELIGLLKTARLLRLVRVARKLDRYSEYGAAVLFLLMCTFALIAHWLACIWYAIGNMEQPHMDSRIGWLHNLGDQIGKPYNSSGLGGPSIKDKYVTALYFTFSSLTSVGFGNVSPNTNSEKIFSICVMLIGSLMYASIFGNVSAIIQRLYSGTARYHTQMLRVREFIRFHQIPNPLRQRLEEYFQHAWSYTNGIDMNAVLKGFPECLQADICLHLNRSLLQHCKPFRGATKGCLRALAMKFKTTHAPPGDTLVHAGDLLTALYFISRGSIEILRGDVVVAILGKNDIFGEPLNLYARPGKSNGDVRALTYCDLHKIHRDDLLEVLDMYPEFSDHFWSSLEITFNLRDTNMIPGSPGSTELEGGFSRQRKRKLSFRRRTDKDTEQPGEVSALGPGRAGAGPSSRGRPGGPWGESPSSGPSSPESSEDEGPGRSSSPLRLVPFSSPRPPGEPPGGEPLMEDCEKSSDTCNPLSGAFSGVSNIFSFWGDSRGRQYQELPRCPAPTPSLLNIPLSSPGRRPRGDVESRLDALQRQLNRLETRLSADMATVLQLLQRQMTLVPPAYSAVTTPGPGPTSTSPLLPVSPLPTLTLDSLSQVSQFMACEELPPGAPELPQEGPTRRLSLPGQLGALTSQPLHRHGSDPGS
row,Structure (SMILES),"hERG current change (%, negative = inhibition) at 10uM [%]"
1,O=C(Nc1nc(-c2ccccc2)cs1)C1CCCO1 (stereo not drawn),-20.1
2,CC(=O)Nc1ccc(-c2cc3ccccc3o2)cc1,1.54
3,N#Cc1ccccc1OCC(=O)Nc1ccc2c(c1)OCCO2,4.25
4,COc1cc(C(=O)NCc2ccccc2)cc(Br)c1OC,7.89
5,COc1ccc(CNc2cccc(C)n2)c(O)c1,-3.24
6,Cc1nc2ccccc2c(=O)n1-c1ccc(F)cc1,-12.1
7,CCOc1ccc2oc(C(=O)NCC3CCCO3)c(C)c2c1 (stereo not drawn),11
8,COc1ccc(CCNC(=O)C(C)n2nc(C)n3c(cc4occc43)c2=O)cc1OC (stereo not drawn),4.63
9,Cc1cc(NC(=O)C2CCN(C(=O)c3ccco3)CC2)ccc1Br,-24.2
10,CN1CCN(CCC(=O)N2c3ccccc3Sc3ccc(C(F)(F)F)cc32)CC1.Cl,-23.1
11,COc1cc(/C=C(\C#N)C(=O)Nc2cccc3ncccc23)ccc1O,15.9
12,COc1ccc(NC(=O)CN(c2ccccc2F)S(=O)(=O)c2ccc(C)cc2)c(OC)c1,11
13,O=C(Cc1ccccc1)NCC(=O)OCC(=O)c1ccccc1Cl,25.9
14,COC(=O)c1ccc(COC(=O)CNC(=O)c2ccco2)cc1,17.3
15,CCNc1nc(NCc2ccccc2)nc(SCC(N)=O)n1,-6.42
16,O=C(NC1CCCCC1)N1CCN(c2ccc(Cl)cc2)CC1,-27.8
17,N#C/C(C(N)=O)=C1/SC(Cc2ccc(F)cc2)C(=O)N1c1ccccc1 (stereo not drawn),10.9
18,CC1CCCN(C(=O)c2nn(C)c3c2CS(=O)(=O)c2ccccc2-3)C1 (stereo not drawn),-23.4
19,O=C(CSc1nnc(CNC(=O)C23CC4CC(CC(C4)C2)C3)n1-c1ccc(F)cc1)Nc1ccccc1,9.59
20,O=C(NCCCN1CCOCC1)C(=O)NCC1OCCN1S(=O)(=O)c1ccc(F)cc1 (stereo not drawn),-10.2
21,COC(=O)c1ccc(CSc2nc(N3CCOCC3)c3c(c2C#N)CC(C)(C)OC3)o1,-24.8
22,CCCC(O)(CCC)C(=O)NN(C(=O)CCl)c1cccc(C)c1,-0.728

row,Structure (SMILES),"hERG current change (%, negative = inhibition) at 10uM [%]"
1,CN(C)C(=O)c1cc(C(=O)c2ccccc2F)c[nH]1,17.2
2,CCN1C(=O)[C@@H]2[C@H](C1=O)[C@@H]1C(=O)Nc3ccccc3C(=O)N1[C@@H]2c1cccc(OC)c1,-31.1
3,CC(=O)Nc1ccc(N(C(=O)CNC(=O)c2ccco2)C(C(=O)NCC2CCCO2)c2ccccc2)cc1 (stereo not drawn),3.74
4,O=C(CC1C(=O)N(c2ccccc2)C(=S)N1c1ccccc1)c1ccccc1 (stereo not drawn),-4.04
5,COc1ccc(CCNc2nncc(=O)[nH]2)cc1OC,2.16
6,Cc1ccc(S(=O)(=O)NC(=NCC(=O)O)c2ccc(F)cc2)cc1,17.6
7,CN(CCOc1ccc(Cl)cc1)c1ccc(S(=O)(=O)N2CCCCC2)cn1,-10.3
8,Oc1cccc2ccc(/C=C/c3ccc(Br)s3)nc12,4.6
9,CCOC(=O)/C=C/C(=O)OCC(=O)Nc1ccc(Cl)cn1,1.69
10,COc1cc2nc(SCc3ccc(Cl)cc3Cl)n(Cc3cccs3)c(=N)c2cc1OC,10.5
11,CCC1(C)Cc2ccccc2-c2nc(SC)[nH]c(=O)c21 (stereo not drawn),23.8
12,CCOC(=O)NC(Nc1ncccn1)(C(F)(F)F)C(F)(F)F,4.78
13,CSC1=N/C(=C\c2c(F)cccc2Cl)C(=O)S1,-17.5
14,CCOC(=O)COc1nc(-c2ccccc2)cc(-c2ccco2)c1C#N,10.1
15,CCOc1ccccc1N1CCN(C(=O)c2cc3c(s2)CCC3)CC1,-17.5
16,COc1ccc(OC(=O)c2cccnc2)cc1,6.06
17,COc1cc(S(=O)(=O)N2CCN(Cc3ccccc3)CC2)ccc1Br,-7.09
18,C/C(=N\NC(=O)Cc1ccc(Cl)c(Cl)c1)c1cccnc1,-12.9
19,Cc1nn(C(C)C(=O)NCC2CCCO2)c(=O)c2c1sc1ccccc12 (stereo not drawn),-4.42
20,CC(=O)N1CCN(c2ccc([N+](=O)[O-])c(-n3nc(C)cc3C)c2)CC1,-51.9
21,CCN(c1ccccc1)S(=O)(=O)c1ccc(NC(=O)c2nc(S(C)(=O)=O)ncc2Cl)cc1,8.95
22,Cc1ccc(-n2ccnc2SCC(=O)O)cc1C,-4.84

row,Structure (SMILES),"hERG current change (%, negative = inhibition) at 10uM [%]"
1,CSc1nc(-c2ccccc2)nn1S(=O)(=O)c1ccccc1,7
2,COC(=O)C1=C(c2cccc(OCc3ccccc3)c2)C[C@@H]2CC[C@H]1N2C(=O)NC1CCN(Cc2ccccc2)CC1,-40.2
3,CCC(=O)N1CCc2cc(Br)cc(S(=O)(=O)N3CCCC(C(=O)NC(C)(C)C)C3)c21 (stereo not drawn),-13.1
4,Clc1ccc2c(c1)-c1[nH]ncc1CS2,-29.3
5,COC(=O)c1c(NC(=O)Cc2ccc(OC)c(S(=O)(=O)N3CCOCC3)c2)sc(C)c1C,-1.18
6,COc1ccc2cc3cc(C(=O)NC4CC4)sc3nc2c1,10.6
7,Cc1ccc(OCC(=O)Nc2ccc(N3CCN(S(C)(=O)=O)CC3)cc2)cc1,17.4
8,C=C(C)Cn1c(SCCN2CCOCC2)nc2c1c(=O)[nH]c(=O)n2C,-4.61
9,Cn1c(=O)c2c(nc(SCc3ccc(C(=O)O)cc3)n2C)n(C)c1=O,12.6
10,COc1ccc(S(=O)(=O)NCC2CCCO2)cc1Cl (stereo not drawn),-3.2
11,COc1cccc(C2C(C(N)=O)=C(C)Nc3nc(CCCO)nn32)c1 (stereo not drawn),22.2
12,Cc1cc(NC(=O)Nc2ccc(OCc3ccccc3)cc2)n(C)n1,23.8
13,CC1(C)CC(=O)C2=C(C1)OC(N)=C([N+](=O)[O-])C2c1ccc(C#N)s1 (stereo not drawn),-37.1
14,Cc1noc(C)c1C(=O)OCC(=O)Nc1cc(Cl)ccc1Oc1ccccc1,-13.9
15,Cc1cccc(NC(=O)CCn2c(=O)oc3ccccc32)c1,8.31
16,COc1ccc(/C=C/C(=O)c2c(C)cc(C)[nH]c2=O)c2ccccc12,8.8
17,COCCN(C(=O)COC(=O)CSc1ccccc1)c1c(N)n(Cc2ccccc2)c(=O)[nH]c1=O,11.5
18,Cc1nc2cc(NC(=O)NC(C)(C)C)ccc2n1C,8.68
19,Cc1ccc(C)c(NC(=O)NNC(=O)c2ccc3ccccc3c2O)c1,11.4
20,COc1ccc(NC(=O)Cc2csc(NC(=O)Nc3ccccc3OC)n2)c(OC)c1,-4.63
21,CC(C)[NH+]1CCC2(CC1)C(C#N)=C(N)NC([S-])=C2C#N,-4.59
22,Cc1cc(=O)[nH]c(-c2ccccc2O)n1,-14.2

row,Structure (SMILES),"hERG current change (%, negative = inhibition) at 10uM [%]"
1,COc1ccc2cc3cc(C(=O)N4CCCCC4C)oc3nc2c1 (stereo not drawn),-9.8
2,C#CCOCCOCCOCCNc1nc(N2CCN(C(=O)Cn3cc(CCC[NH+]=C(N)N)nn3)CC2)nc(N2CCN(C(=O)[C@H](C(C)C)n3cc(CCO)nn3)CC2)n1.[Cl-],11.3
3,O=C(NC1(C(F)(F)F)C(=O)Nc2c1c(=O)[nH]c(=O)n2-c1ccccc1)c1ccncc1 (stereo not drawn),3.53
4,CCN(CC(=O)N(CC(C)C)c1c(N)n(CC(C)C)c(=O)[nH]c1=O)Cc1nc2ccccc2c(=O)[nH]1,14.1
5,COc1cc2c(cc1OC)C(C)=NCC2,8.28
6,CCCC(=O)Nc1nnc(SCC(=O)NCc2cccs2)s1,8.39
7,C=CCC1Cc2c(Br)cccc2C(CC=C)N1 (stereo not drawn),-7.3
8,Cc1ccc(N2CCN(C(=S)c3ccc(-c4cccc([N+](=O)[O-])c4)o3)CC2)cc1,13.8
9,COc1ccccc1NC(=O)c1cc(OC)c(OC)cc1[N+](=O)[O-],4.44
10,COc1ccccc1-c1coc2cc(OC(=O)N3CCOCC3)ccc2c1=O,-3.27
11,c1cncc(-c2nn3c(Cn4cnc5ccccc54)nnc3s2)c1,-19.8
12,Cc1ccc(-c2nc(CS(=O)CC(=O)NCCN3CCCC3)c(C)o2)cc1 (stereo not drawn),-5.74
13,CCOc1ccccc1N1CCN(C(=O)NCc2ccc(Cl)cc2)CC1,-14.6
14,CCOc1ccc(NC(=O)c2ccc(CSc3nnc(C)s3)cc2)cc1,2.93
15,COc1ccc(Cl)c2sc(N(Cc3cccnc3)C(C)=O)nc12,13.2
16,O=C(CN1CCN(CC(=O)Nc2ccc(F)cc2)CC1)NCC1(N2CCOCC2)CCCCC1,-73.4
17,CCOC(=O)C1=C(c2ccccc2)OC(N)=C(C#N)C1c1ccncc1 (stereo not drawn),-11.3
18,CC(C)CCN1CCN(Cc2cccc3nonc23)CC1CCO (stereo not drawn),-16.7
19,CC(NC(=O)CSc1nc2ccccc2n1C)c1ccccc1 (stereo not drawn),19.8
20,Cc1nn(Cc2cccc(C(=O)N3N=C(C(F)F)CC3(O)C(F)F)c2)c(C)c1[N+](=O)[O-] (stereo not drawn),-19.6
21,CC(=O)Nc1ccccc1Nc1cc(C#N)c(C#N)cc1[N+](=O)[O-],0.808
